The campaign covered roughly 310,000 compounds. About 14,000 (4.5%) showed an effect of 50% or more. The effect is printed as a negative number. The list shows a part of the results.
biological target: human ether-à-go-go-related gene (hERG) potassium channel (human, UniProt Q12809); assay: primary screen, population patch clamp on CHO cells stably expressing hERG
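Note: peak tail current of the secondary pulse compared with the same well before compound.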

Chain of human ether-à-go-go-related gene (hERG) potassium channel (Q12809 whole entry, looked up): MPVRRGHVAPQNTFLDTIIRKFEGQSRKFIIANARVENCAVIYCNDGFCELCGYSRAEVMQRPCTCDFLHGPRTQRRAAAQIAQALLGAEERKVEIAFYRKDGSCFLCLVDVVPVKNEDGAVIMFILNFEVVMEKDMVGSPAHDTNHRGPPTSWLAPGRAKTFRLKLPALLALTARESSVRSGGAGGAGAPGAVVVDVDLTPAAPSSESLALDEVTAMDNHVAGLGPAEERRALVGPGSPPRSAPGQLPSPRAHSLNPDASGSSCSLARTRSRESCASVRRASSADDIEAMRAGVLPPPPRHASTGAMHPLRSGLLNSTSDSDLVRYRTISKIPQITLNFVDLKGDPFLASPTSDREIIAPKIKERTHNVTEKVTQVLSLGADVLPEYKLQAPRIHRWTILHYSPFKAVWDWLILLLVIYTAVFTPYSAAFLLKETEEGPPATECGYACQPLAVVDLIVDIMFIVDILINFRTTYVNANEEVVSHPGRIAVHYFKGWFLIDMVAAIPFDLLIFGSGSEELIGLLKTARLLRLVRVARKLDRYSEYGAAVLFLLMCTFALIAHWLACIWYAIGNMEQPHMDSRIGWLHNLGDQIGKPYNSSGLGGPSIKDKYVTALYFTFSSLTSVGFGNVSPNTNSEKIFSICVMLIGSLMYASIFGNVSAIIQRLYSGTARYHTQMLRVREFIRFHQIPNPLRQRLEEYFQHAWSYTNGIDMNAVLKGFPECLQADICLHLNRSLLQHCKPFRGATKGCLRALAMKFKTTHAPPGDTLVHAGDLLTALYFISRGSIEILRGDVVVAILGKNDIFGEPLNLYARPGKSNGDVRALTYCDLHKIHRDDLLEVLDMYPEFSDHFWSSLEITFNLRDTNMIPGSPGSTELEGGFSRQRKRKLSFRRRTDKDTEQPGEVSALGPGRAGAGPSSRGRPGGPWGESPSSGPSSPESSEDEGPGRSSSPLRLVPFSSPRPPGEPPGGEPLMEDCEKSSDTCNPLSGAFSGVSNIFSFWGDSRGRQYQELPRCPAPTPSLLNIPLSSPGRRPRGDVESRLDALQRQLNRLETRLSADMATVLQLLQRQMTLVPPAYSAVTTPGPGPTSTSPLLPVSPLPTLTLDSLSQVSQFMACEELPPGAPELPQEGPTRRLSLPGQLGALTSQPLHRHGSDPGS

Question: Which “hERG current change (%, negative = inhibition) at 10uM” value does the source give for CCOC(=O)/C(C#N)=N/Nc1ccc(S(=O)(=O)N2CCc3ccccc32)cc1 here?
Answer: Its value is 2.18%.

Question: For CCCC(=O)OCCNc1cc(Sc2nccn2C)c2nonc2c1[N+](=O)[O-], which “hERG current change (%, negative = inhibition) at 10uM” value is on record?
Answer: The value was 3.02%.

Question: CCSc1nnc(-c2sc3nnc(-c4ccccc4)c(-c4ccccc4)c3c2N)o1 was tested. Which “hERG current change (%, negative = inhibition) at 10uM” value did it give?
Answer: The value was 15.6%.

Question: How did the “hERG current change (%, negative = inhibition) at 10uM” value turn out when COc1ccc(CN2C(=O)[C@@H]3C(c4ccc(F)cc4)=NO[C@@H]3C2=O)cc1 was run?
Answer: The value was 5.66%.

Question: CCC(C)(C)n1nnnc1CN1CCC(O)(c2cccc(C(F)(F)F)c2)CC1 was tested. Which “hERG current change (%, negative = inhibition) at 10uM” value did it give?
Answer: The value was 16.9%.

Question: Nc1cc(=O)nc(SCC(=O)Nc2cccc3ccccc23)n1CCc1ccccc1 was tested. Which “hERG current change (%, negative = inhibition) at 10uM” value did it give?
Answer: The value was -7.07%.

Question: Which “hERG current change (%, negative = inhibition) at 10uM” value does the source give for Cc1ccc(OCC(=O)N(C)CC(=O)Nc2ccc(N3CCOCC3)cc2)cc1 here?
Answer: The value was 8.02%.

Question: With O=C(Nc1ccc2c(c1)OCCO2)C1CC(c2ccc(F)cc2)=NO1 (centres unmarked) as the compound, how does the “hERG current change (%, negative = inhibition) at 10uM” value read?
Answer: The value was 12.3%.

Question: With CC(=O)Nc1cc(NC(C)=O)cc(C(=O)OCC(=O)N(c2ccccc2)C2CCS(=O)(=O)C2)c1 (centres unmarked) as the compound, how does the “hERG current change (%, negative = inhibition) at 10uM” value read?
Answer: The value was 6.26%.

Question: Cc1ccc(NC(=O)COC(=O)c2ccc3c(c2)OCCO3)cc1 was tested. Which “hERG current change (%, negative = inhibition) at 10uM” value did it give?
Answer: The value was -2.92%.

Question: How did the “hERG current change (%, negative = inhibition) at 10uM” value turn out when C=CCn1c(=O)c(C(=O)Nc2ccccc2O)c(O)c2ccccc21 was run?
Answer: Its value is 13.9%.

Question: How did the “hERG current change (%, negative = inhibition) at 10uM” value turn out when CC(C)NC(=O)CN(C(=O)CCC(=O)Nc1ccccn1)c1ccc(F)c(Cl)c1 was run?
Answer: Its value is 10.4%.

Question: Which “hERG current change (%, negative = inhibition) at 10uM” value does the source give for COc1ccc2c(c1)O/C(=C\c1sccc1C)C2=O here?
Answer: The value was 1.08%.

Question: With COc1ccc(N2CCN(C(=O)c3ccc(NS(=O)(=O)c4ccc(F)cc4)cc3)CC2)cc1 as the compound, how does the “hERG current change (%, negative = inhibition) at 10uM” value read?
Answer: The value was -40.5%.

Question: Cc1ccc(C)c(CNc2ccc(S(=O)(=O)N3CCCCC3)cc2)c1 was tested. Which “hERG current change (%, negative = inhibition) at 10uM” value did it give?
Answer: The value was 3.98%.

Question: How did the “hERG current change (%, negative = inhibition) at 10uM” value turn out when CC(C)(C)C(=O)c1cnc(Nc2ccccc2Cl)s1 was run?
Answer: Its value is 2.2%.

Question: COc1ccc(-n2c(COc3cccc4ccccc34)nnc2SC(C)C(=O)O)cc1 (centres unmarked) was tested. Which “hERG current change (%, negative = inhibition) at 10uM” value did it give?
Answer: The value was 5.74%.

Question: For CC(C)(C)n1ncc2c(=O)n(Cc3ccc(Cl)cc3Cl)cnc21, which “hERG current change (%, negative = inhibition) at 10uM” value is on record?
Answer: The value was 14.5%.

Question: CC(OC(=O)Cc1n[nH]c(=O)c2ccccc12)C(=O)Nc1cc(Cl)cc(Cl)c1 (centres unmarked) was tested. Which “hERG current change (%, negative = inhibition) at 10uM” value did it give?
Answer: Its value is -16.8%.

Question: Which “hERG current change (%, negative = inhibition) at 10uM” value does the source give for O=C(Nc1ccccc1Cl)C1CCCN1C(=O)OCc1ccccc1 (centres unmarked) here?
Answer: The value was 17.4%.

Question: For COc1ccc(C(=O)NC(=S)NCC2CCCO2)cc1 (centres unmarked), which “hERG current change (%, negative = inhibition) at 10uM” value is on record?
Answer: The value was 5.02%.

Question: With Cc1cc2nc(-c3ccc(SCc4ccc(C#N)cc4)nc3)[nH]c2cc1C as the compound, how does the “hERG current change (%, negative = inhibition) at 10uM” value read?
Answer: Its value is -6.28%.

Question: How did the “hERG current change (%, negative = inhibition) at 10uM” value turn out when COc1cccc(-c2nnn(C/C(N)=N/O)n2)c1 was run?
Answer: The value was 14.8%.

Reference: article PMC4336329 (PLoS ONE, 2015)
